Results taken from ChEMBL document CHEMBL4888484, “Replenishing the malaria drug discovery pipeline: Screening and hit evaluation of the MMV Hit Generation Library 1 (HGL1) against asexual blood stage Plasmodium falciparum ,using a nano luciferase reporter read-out” (2022).
Hit rate of the full screen: of about 150,000 compounds, about 540 (0.36%) showed an effect of 50% or more. This is one part of the list.

Tested on: Plasmodium falciparum
Test: Primary screen in NF54 nanoGlo assay, in single point, at 2uM, 72h; a lower Z score goes with more inhibition
Format: functional, Erythrocyte
Conditions: timepoint 72 hour

Compound | % Inhibition [%] | Z score
O=C(CN1CCC(c2ncco2)CC1)NC[C@H]1CCCO1 | 4 | -0.42
N[C@H]1C[C@H](c2cc(N3CCC(Oc4cccc(Cl)c4)CC3)ncn2)C1 | -6 | 1.19
COc1ccc([C@@H]2NC(=O)CN(C)C2=O)cc1 | 13 | -1.62
CCCn1c(N)c(C(=O)CN(Cc2ccccc2)c2ccc(OC)cc2)c(=O)n(C)c1=O | -7 | 0.95
COc1cccc(-c2ccc(N3CCCN(C(=O)CN(Cc4ccc(F)cc4)C(=O)CC(C)C)CC3)nn2)c1 | -14 | 1.76
O=C(Nc1cccc(NC(=O)C(F)(F)F)n1)C(F)(F)F | -9 | 1.65
Cc1cc(NC(=O)Cn2cc(-c3ccnc(N)n3)cn2)n(Cc2ccccc2)n1 | -9 | 1.57
Cc1ccc2nc(-c3nc(C)cs3)[nH]c(=O)c2c1 | -20 | 2.83
Cc1cc(=O)n(CC(=O)Nc2ccc(C)c(C)c2)c(N2CCCCC2)n1 | -20 | 2.09
Cc1nc([C@@H]2C=CCN2)n(-c2ccc(Cl)cc2C)n1 | 0 | -0.06
CC(C)CNC(=O)[C@@H]1CCCCN1C(=O)c1cc2n(n1)CCCN(Cc1ccccc1)C2=O | -1 | 0.25
C[C@@H](CNCCn1cnnc1C1CC1)c1ccccc1 | -11 | 1.39
CC(=O)N1CCc2cc(NS(=O)(=O)c3c(C)cc(C)cc3C)ccc21 | 6 | -1.22
Cc1cc2c(cc1Cl)C1CC(C)(O2)N(CCCO)C(=O)N1 (configuration not stated) | -3 | 0.47
CN1CCN(CCNC(=O)c2ncccc2F)CC1(C)C | -9 | 1.53
O=C(O)C[C@]1(c2ccccc2)CC(=O)N(CC2CCCCC2)C1=O | 0 | 0.07
COc1ccc(O[C@@H](C)CNC(=O)c2ccncc2)cc1 | 0 | 0.01
C=CCn1cc(CN[C@@H](CCn2ccnc2C)c2ccccc2)c(C)n1 | -3 | 0.61
Cc1cc(CS(=O)(=O)c2ccc(F)c(F)c2)no1 | 5 | -0.92
CNC(=O)c1cc[nH]c1[C@H]1CCCN(Cc2cc(C(F)(F)F)ccc2Cl)C1 | -1 | 0.11
CCCCS(=O)(=O)N(C[C@H]1CCC(=O)N1)C(C)C | -8 | 1.21
Cn1cc(C2C[S+]([O-])CCN2C(=O)c2cc(F)c[nH]2)cn1 (configuration not stated) | -19 | 2.25

Compound | % Inhibition [%] | Z score
COc1nc(N[C@H]2COC[C@@H]2N2CCCC2)ncc1F | -7 | 1.4
Cn1nncc1C(=O)N1CCCC(C)(C)c2ccccc21 | -10 | 1.57
O=C(NCc1nccs1)N1CCC[C@H](CN2CCOCC2)C1 | -9 | 0.85
CCN(CCC(=O)NCC1CC1)C(=O)c1cc2n(n1)CCCN(Cc1ccc(F)cc1)C2=O | -9 | 0.87
COc1ccc(N2CCN(c3nc(C(=O)NCCN(C)C)cs3)CC2)cc1 | -6 | 0.8
Cc1ccc(C)c(NC(=O)c2c(Oc3ccc(F)cc3)nc(C)c(Cl)c2C)c1 | -8 | 1.01
C[C@@H]1CN(Cc2cc3cc(F)ccc3n2C)CC[C@]1(C)O | -15 | 1.5
COc1cccc(CNc2nc3ccncc3n(C(C)C)c2=O)c1OC | -15 | 1.47
O=C1NCCOCCCN(S(=O)(=O)c2ccc3c(c2)CCC3)[C@H]2CCC[C@@H]12 | 2 | -0.29
O=C(NC[C@H]1CCCO1)c1ccc(S(=O)(=O)N2CCOCC2)cc1 | 8 | -0.99
Cc1cccc(N(C)CCN2CCOCC2)c1 | -17 | 1.53
CCOc1ccc(S(=O)(=O)N2CCCCC2)cc1-c1nc(C(C)C)no1 | -6 | 1.17
CCOc1cc(C(=O)Nc2nc(C3CC3)cs2)ccn1 | -13 | 1.81
CC(C)CC(=O)C(=O)N1CCC([C@]2(Cc3ccc(F)cc3)NC(=O)N(CC3CC3)C2=O)CC1 | -4 | 0.42
CCc1ccc(S(=O)(=O)N2CC[C@H](n3cc(-c4ccccc4)nn3)C2)s1 | -26 | 3.39
Cc1ncn(CCNCc2c(F)cccc2F)c1C | -4 | 0.44
Cn1cnnc1CCC(=O)N[C@H](c1nccn1C)C1CC1 | -9 | 1.58
CCN=C(NC)Nc1cccc(OCCCOC)c1 | -4 | 0.42
COc1cccc(OCCN2CC3(CCCC3)CC2=O)c1 | -7 | 1.24
COc1cc(NCc2cn[nH]c2-c2cccs2)ncn1 | -6 | 0.79
CCN(CC)C(=O)N1CCN(c2ncccc2-c2nc(C)no2)CC1 | -15 | 2.8
Cc1nn(-c2ccccc2)c2nc(Cc3ccccc3)nc(N3CCN(C(=O)C[C@@H](C)CC(C)(C)C)CC3)c12 | -5 | 0.71

Compound | % Inhibition [%] | Z score
O=C(N[C@H]1CCCN(C(=O)COC(F)F)C1)c1ccc(Cl)cc1 | 2 | -0.19
CCOC(=O)c1cn(Cc2ccccc2Cl)c2nc(C)ccc2c1=O | 0 | -0.08
COc1ccc(Cc2ncc3c(n2)CN(CCn2nc(C)cc2C)C3)cc1 | -4 | 0.57
Cc1cc(-c2nc(-c3ccc(OC(C)(C)C)cn3)no2)n[nH]1 | 1 | -0.26
O=S1(=O)CCc2ccccc2N1Cc1nnc2n1CCCCC2 | -9 | 1.33
c1ccc2c(N3CCOCC3)nnc(N3CCOCC3)c2c1 | -9 | 1.33
Cc1ccc(C(=O)NNC2=NCCC2)cc1 | -10 | 1.59
CCn1nc(C2CCCC2)nc1-c1ccncc1 | 4 | -0.65
COc1ccccc1CNC(=O)[C@@]1(CCO)CC12CCOCC2 | -1 | 0.1
CC1CN(C(=O)CC2OCCCO2)CC(c2ccc(F)cc2)O1 (configuration not stated) | -9 | 1.44
C[C@@H](C(=O)NCCN1CCOC(C)(C)C1)n1cnc2c(N)ncnc21 | -6 | 1.2
CCO[C@@H](C)c1nccn1Cc1nc(=O)[nH][nH]1 | -6 | 0.72
CCCC(=O)N1CCC[C@H](C(=O)N2CCCC2)C1 | -11 | 1.43
CCOC[C@@H](O)CNC(=O)c1cccc(C)c1Cl | -9 | 1.57
COc1ccc(-n2nc(C(C)C)c(CN(C[C@H](O)c3ccccc3)C(C)C)c2Oc2ccccc2)cc1 | 0 | -0.04
COc1ccc(N2C[C@@H](C(=O)N3CCCn4ncnc43)CC2=O)cc1 | 1 | -0.27
CC1CCCN(C(C)CNC(=O)Nc2cccc(-c3ncn(C)n3)c2)C1 (configuration not stated) | -3 | 0.65
CO[C@H]1C[C@@H](O)C12CCN(C(=O)c1ccc(N)nc1)CC2 | -6 | 0.77
Cc1ccc(S(=O)(=O)Nc2[nH]nnc2C(=O)Nc2ccc(F)cc2)cc1 | 4 | -0.54
CC(C)N1C(=O)N[C@]2(CCN(CC3CCCC3)C2)C1=O | -6 | 0.61
COc1ccc(F)c(CN2CCC[C@@]3(CCN(c4cc(C#N)ccn4)C3)C2)c1 | -12 | 2.04
C=C1CC(c2noc(-c3ccc(C(F)(F)F)c(=O)[nH]3)n2)C1 | -16 | 2.03

Compound | % Inhibition [%] | Z score
O=C(c1cnn(-c2ccc(F)cc2)n1)N1CCc2cncnc2C1 | -7 | 1.36
COCc1cc(C[C@@H]2C[C@H](NS(=O)(=O)c3ccccc3)C2(C)C)no1 | 22 | -2.51
c1ccc2c(CNC[C@H]3CCCO3)cccc2c1 | 2 | -0.33
Cc1cc(C)nc(NC(=N)N2CCOCC2)n1 | -1 | 0.14
Cc1nc(-c2ccccn2)n(CC(=O)Nc2cc(C3CC3)nn2-c2ccccc2)n1 | -1 | 0.26
COc1ccc(C2C(COC(=O)c3cnn(C)c3C)CCN2C)cc1 (configuration not stated) | -4 | 0.58
O=C1CC(C2CCCCN2Cc2ccc(Cl)cc2F)CN1 (configuration not stated) | -11 | 1.16
Cc1cc(CN2CCC[C@H](C)C2)c(C)c(CN2CCNC(=O)C23CCCC3)c1 | -13 | 1.72
Cc1csc2ncnc(NC3CC(C)n4ccnc43)c12 (configuration not stated) | 0 | 0.04
Cc1nnnn1Cc1ccc(C(=O)N2CCC(C(=O)N3CCCC3)CC2)cc1 | 7 | -1.45
C(=C\C1CCCCC1)/c1n[nH]c2ncccc12 | -14 | 1.8
CCNC(=O)C1=CCN(C(=O)c2ccc(C)cc2C)CC1 | 3 | -0.5
O=C(Cn1cnc2cc3c(cc21)OCCO3)NCCc1ccccc1 | -4 | 0.4
O=C(NCCc1n[nH]c(-c2ccc(F)c(F)c2)n1)c1ccc(Cl)cc1 | -8 | 1.44
CC(NC(=O)CN1C(=O)CC(C)(C(C)C)C1=O)c1ccc(F)cc1 (configuration not stated) | -7 | 0.76
CCC1(CC)CCC(NC(=O)NCCc2cncc(C)n2)CC1 | -13 | 1.12
O=C1NCCN(Cc2cccc(F)c2F)[C@H]1CC(=O)N1CCCC1 | -2 | 0.36
COCCN(Cc1ccc(C)o1)C(=O)c1ccc(Cl)cn1 | -8 | 1.07
O=C(CC1CCCC1)N[C@@H](CN1C(=O)COC1=O)c1ccccc1 | -10 | 1.88
CCn1nc(C)c2c1c(=O)n(Cc1ccccc1)c(=O)n2CC(=O)Nc1cccc(C(C)=O)c1 | -15 | 1.49
